Laboratory results from patent publication US6562588B2, “Sialidase and recombinant cell lines” (Genentech, Inc., priority 1993, dated 2003).

What was measured:
CHO cell sialidase [1] = biological target: T1, CHO cell sialidase (Cricetulus griseus, UniProt Q64393); test: Sialidase kinetic constants with soluble sialylglycoconjugate substrates; format: biochemical, Chinese hamster; parameters: The sialidase described is purified exclusively from the cell culture fluid of a single production cell line (CHO 14.16); endogenous in cells; host or cells: CHO 14.16 cells (serum-free culture fluid); details: apparent value; standard assay conditions; average of duplicates
CHO cell sialidase [2] = biological target: T1, CHO cell sialidase; test: Sialidase activity toward gangliosides and colominic acid (thiobarbiturate assay); format: biochemical, Chinese hamster; parameters: The sialidase described is purified exclusively from the cell culture fluid of a single production cell line (CHO 14.16); endogenous in cells; host or cells: CHO 14.16 cells (serum-free culture fluid); details: for Relative Activity: substrates at 4 mM, pH 6.0, initial rate, cholic acid (0.05%) with lipid substrates, relative to α-2,3 sialyllactose; for Hydrolysis of ganglioside by the sialidase (in words): cholic acid as solubilizing agent
Experimental: Sialidase assays with natural substrates: When natural substrates are tested with the purified enzyme, the amount of released sialic acid is measured using the thiobarbituric acid assay as modified by Uchida [Uchida et al. J. Biochem., 82:1425 (1977)] using sialic acid as standard. The amount of sialic acid in control samples, which include a complete assay mixture incubated without added enzyme is subtracted from each determination. all samples are cleared by centrifugation (1,000×G. 10 min) prior to determining the absorbance at 540 nm.
Some gangliosides are degraded by the sialidase, TABLE III; although these substrates require the presence of cholic acid as a solubilizing agent in the assay for optimal activity.

T1 sequence (Q64393 whole entry): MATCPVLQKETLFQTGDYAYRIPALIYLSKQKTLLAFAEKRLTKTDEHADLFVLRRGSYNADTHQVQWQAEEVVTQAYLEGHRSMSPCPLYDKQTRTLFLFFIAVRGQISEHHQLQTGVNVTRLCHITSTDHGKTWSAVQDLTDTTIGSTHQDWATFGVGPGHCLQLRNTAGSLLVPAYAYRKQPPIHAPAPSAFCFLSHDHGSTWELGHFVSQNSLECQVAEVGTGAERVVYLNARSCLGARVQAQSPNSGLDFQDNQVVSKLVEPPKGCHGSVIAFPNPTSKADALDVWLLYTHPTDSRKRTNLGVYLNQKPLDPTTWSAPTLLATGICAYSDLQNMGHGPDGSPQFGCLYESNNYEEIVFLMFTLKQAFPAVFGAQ

Molecule	Km (CHO cell sialidase [1]) [µM]	Vmax (CHO cell sialidase [1]) [µmol/min/mg]	Relative Activity (CHO cell sialidase [2]) [%]	Hydrolysis of ganglioside by the sialidase (in words) (CHO cell sialidase [2])
CC(=O)N[C@H]1[C@H]([C@H](O)[C@H](O)CO)O[C@@](Oc2ccc3c(C)cc(=O)oc3c2)(C(=O)O)C[C@@H]1O [4-MU-Neu5Ac, (4-methylumbelliferyl-5-acetamido-3,5-dideoxy-D-glycero-α-D-galacto-nonulopyranosid)onic acid]	400	18		
CC(=O)N[C@H]1[C@H]([C@H](O)[C@H](O)CO)O[C@@](O[C@H](CO)[C@@H](O)[C@@H]2OC(O)(C(=O)O)C[C@H](O)[C@H]2NC(C)=O)(C(=O)O)C[C@@H]1O (stereo partly drawn) [Sialic acid dimer]	3400	11		
CC(=O)N[C@H]1[C@H]([C@H](O)[C@H](O)CO)O[C@@](O[C@H]2[C@@H](O)[C@@H](CO)O[C@@H](O[C@H]3[C@H](O)[C@@H](O)C(O)O[C@@H]3CO)[C@@H]2O)(C(=O)O)C[C@@H]1O (stereo partly drawn) [α-2,3 Sialyllactose]	1300	16	100	
CC(=O)N[C@H]1[C@H]([C@H](O)[C@H](O)CO)O[C@@](OC[C@H]2O[C@@H](O[C@H]3[C@H](O)[C@@H](O)C(O)O[C@@H]3CO)[C@H](O)[C@@H](O)[C@H]2O)(C(=O)O)C[C@@H]1O (stereo partly drawn) [α-2,6 Sialyllactose]	1200	4		
Colominic Acid			4	
IV^3NeuAc, ||^3(NeuAc)2-GgOse4Cer [GT1b]			23	hydrolyzed at comparable rates
IV^3NeuAc, ||^3NeuAc-GgOse4Cer [GD1a]			21	hydrolyzed at comparable rates
Transferrin: isolated from human serum, contains only 2,6 linked sialic acid residues; glycoprotein substrate	4100	2		
||NeuAc-LacCer [GM3]			29	hydrolyzed at comparable rates
||^3(NeuAc)2-GgOse4Cer [GD1b]				not substrates
||^3NeuAc-GgOse3Cer [GM2]				not substrates
||^3NeuAc-GgOse4Cer [GM1]				not substrates
